Assay results reported in publication PMC4624786.
These are yes or no findings as the source states them, for the method shown. Binding seen in cells or lysates may run through a third protein. Some entries that bind do so weakly or less than the wild type. For part of these data: Sequences can lack the tags named with a protein.

Chains of the proteins cited; added tags and fusions are not shown. Lines headed by an entry give the natural chain unless they say otherwise; changes in a name come on top. Residues count along the entry.
UniProt P70181: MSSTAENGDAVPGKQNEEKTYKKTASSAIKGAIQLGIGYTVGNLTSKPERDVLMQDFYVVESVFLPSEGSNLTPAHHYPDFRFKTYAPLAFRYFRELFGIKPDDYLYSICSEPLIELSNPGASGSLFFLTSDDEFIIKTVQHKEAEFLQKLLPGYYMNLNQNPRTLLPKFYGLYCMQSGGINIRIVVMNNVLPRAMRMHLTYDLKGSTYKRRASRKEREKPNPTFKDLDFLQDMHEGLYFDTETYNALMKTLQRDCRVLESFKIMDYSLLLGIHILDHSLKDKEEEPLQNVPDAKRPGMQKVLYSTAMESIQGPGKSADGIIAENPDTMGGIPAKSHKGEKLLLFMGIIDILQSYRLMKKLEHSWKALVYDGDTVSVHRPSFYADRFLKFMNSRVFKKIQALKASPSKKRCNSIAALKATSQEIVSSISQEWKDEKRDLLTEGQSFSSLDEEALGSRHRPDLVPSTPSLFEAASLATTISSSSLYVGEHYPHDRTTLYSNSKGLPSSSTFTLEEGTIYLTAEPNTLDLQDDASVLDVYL
UniProt P70182: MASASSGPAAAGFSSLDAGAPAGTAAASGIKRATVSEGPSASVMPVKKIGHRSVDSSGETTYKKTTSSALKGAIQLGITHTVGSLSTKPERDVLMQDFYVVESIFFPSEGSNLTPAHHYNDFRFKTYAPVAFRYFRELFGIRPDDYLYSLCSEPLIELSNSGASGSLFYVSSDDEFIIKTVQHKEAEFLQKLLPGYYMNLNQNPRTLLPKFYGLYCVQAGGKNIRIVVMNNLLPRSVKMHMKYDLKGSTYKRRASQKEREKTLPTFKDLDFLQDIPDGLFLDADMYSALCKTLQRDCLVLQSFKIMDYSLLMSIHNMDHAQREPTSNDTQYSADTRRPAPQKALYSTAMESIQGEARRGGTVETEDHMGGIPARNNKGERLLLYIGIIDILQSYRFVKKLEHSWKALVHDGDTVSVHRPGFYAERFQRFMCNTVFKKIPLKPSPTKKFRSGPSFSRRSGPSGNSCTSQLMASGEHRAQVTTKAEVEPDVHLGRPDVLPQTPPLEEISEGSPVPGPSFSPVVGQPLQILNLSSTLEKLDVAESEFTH
myc-PIPKIα-(1–507): residues 1-507 of P70182
myc-PIPKIα-(1–438): residues 1-438 of P70182
UniProt O70161: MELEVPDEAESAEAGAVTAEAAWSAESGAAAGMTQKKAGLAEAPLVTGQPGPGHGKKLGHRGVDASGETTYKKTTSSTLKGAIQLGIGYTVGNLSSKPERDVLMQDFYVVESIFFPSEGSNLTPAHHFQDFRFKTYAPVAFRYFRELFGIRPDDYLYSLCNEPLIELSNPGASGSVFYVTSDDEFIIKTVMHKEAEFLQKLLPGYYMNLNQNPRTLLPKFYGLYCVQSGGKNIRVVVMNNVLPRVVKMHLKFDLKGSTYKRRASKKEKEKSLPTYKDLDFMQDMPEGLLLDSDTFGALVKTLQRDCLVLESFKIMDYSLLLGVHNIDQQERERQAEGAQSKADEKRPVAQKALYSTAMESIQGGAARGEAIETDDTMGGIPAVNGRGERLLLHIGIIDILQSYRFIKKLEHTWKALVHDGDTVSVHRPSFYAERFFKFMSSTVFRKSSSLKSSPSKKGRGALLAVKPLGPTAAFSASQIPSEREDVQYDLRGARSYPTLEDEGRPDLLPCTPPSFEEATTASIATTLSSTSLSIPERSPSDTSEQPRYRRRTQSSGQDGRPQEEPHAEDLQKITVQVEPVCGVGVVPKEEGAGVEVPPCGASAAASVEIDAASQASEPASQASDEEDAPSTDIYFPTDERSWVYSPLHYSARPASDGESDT
UniProt P11881, residues 224-604: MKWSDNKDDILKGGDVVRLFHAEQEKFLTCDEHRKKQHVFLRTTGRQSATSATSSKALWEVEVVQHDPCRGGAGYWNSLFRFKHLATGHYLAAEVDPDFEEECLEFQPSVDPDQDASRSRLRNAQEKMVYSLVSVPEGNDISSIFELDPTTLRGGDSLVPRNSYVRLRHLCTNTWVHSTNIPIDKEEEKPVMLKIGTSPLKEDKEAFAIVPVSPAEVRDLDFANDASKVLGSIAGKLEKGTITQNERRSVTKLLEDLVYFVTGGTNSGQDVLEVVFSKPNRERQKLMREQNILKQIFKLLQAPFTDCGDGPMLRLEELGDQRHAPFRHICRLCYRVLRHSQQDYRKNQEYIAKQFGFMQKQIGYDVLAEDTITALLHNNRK
UniProt Q80SW1: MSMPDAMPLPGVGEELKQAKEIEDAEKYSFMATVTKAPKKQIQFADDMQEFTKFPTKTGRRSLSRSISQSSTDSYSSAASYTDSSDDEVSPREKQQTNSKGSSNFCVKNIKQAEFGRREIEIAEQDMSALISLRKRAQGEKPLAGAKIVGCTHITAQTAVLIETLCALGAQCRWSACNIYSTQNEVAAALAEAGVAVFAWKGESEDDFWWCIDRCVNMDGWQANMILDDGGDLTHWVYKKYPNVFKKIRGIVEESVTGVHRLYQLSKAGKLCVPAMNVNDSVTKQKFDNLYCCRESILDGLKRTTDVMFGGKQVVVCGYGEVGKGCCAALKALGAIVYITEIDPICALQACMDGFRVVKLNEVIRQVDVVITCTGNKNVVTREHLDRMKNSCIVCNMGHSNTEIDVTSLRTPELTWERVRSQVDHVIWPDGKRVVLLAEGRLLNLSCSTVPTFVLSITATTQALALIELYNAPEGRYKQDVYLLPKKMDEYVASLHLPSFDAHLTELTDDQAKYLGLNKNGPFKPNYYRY

Columns and labels:
[1] = molecular target: myc-tagged phosphatidylinositol phosphate kinase type Iβ (mouse) (UniProt P70181); assay: co-IP; as the COS-7 co-IP, but lysis buffer with 1 mM MgCl2 and 1 mM EGTA instead of 2 mM EDTA (S1 Fig A)
[2] = molecular target: T1, myc-tagged phosphatidylinositol phosphate kinase type IIγ (rat) (UniProt O88370); assay: as above
T1 sequence: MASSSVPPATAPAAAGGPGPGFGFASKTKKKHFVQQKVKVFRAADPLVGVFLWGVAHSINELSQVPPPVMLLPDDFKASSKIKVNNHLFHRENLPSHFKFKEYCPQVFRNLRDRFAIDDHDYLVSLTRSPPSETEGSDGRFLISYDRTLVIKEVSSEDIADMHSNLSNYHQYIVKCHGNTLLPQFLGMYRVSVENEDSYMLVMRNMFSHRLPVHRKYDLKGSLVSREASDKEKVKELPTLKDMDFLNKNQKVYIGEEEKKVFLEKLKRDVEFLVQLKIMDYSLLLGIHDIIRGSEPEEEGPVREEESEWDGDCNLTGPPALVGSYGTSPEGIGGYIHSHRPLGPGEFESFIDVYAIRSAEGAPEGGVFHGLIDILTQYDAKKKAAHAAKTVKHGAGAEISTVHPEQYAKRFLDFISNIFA

[3] = molecular target: myc-tagged phosphatidylinositol phosphate kinase type Iα (mouse) (UniProt P70182); assay: as above
[4] = molecular target: T2, myc-tagged phosphatidylinositol phosphate kinase type IIβ (rat) (UniProt O88377); assay: as above
T2 sequence: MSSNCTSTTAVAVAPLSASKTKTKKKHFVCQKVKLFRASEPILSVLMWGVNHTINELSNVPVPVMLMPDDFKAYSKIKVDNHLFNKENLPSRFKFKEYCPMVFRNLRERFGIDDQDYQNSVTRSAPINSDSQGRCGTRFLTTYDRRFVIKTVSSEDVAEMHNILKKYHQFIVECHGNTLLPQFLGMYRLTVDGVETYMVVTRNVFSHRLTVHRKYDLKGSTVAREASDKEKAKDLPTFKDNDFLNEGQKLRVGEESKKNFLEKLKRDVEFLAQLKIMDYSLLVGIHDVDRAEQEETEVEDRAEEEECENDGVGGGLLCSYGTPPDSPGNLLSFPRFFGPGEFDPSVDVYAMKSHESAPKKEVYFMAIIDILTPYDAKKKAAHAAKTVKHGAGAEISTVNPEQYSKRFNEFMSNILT

[5] = molecular target: T3, myc-tagged phosphatidylinositol phosphate kinase type IIα (rat) (UniProt Q9R0I8); assay: as above
T3 sequence: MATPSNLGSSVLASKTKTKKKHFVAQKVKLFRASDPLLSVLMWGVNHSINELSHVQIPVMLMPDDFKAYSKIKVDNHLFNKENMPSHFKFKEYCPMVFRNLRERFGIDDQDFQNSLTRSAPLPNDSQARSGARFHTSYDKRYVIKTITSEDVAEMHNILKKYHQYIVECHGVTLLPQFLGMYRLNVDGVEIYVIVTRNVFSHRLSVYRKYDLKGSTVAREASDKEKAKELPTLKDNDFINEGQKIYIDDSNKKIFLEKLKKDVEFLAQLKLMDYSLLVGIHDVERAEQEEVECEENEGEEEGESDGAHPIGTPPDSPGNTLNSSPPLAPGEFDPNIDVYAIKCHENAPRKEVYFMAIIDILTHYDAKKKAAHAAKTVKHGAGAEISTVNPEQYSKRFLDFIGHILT

[6] = molecular target: myc-tagged phosphatidylinositol phosphate kinase type Iγ (mouse) (UniProt O70161); assay: as above
[7] = molecular target: IP3 binding domain of IP3R1 (residues 224–604) fused to GST (UniProt P11881); assay: pull-down; COS-7 cell lysates incubated with 10 μg GST fusion protein for 1 hr at 4°C, glutathione-Sepharose 4B, washed with lysis buffer (2 mM EDTA, 1% Nonidet P-40), eluted with 20 mM glutathione; Western blot; only the target purified
[8] = molecular target: GST-PIPKIα D389A (mouse) (UniProt P70182); assay: as above
[9] = molecular target: GST-PIPKIα D307A (mouse) (UniProt P70182); assay: as above
[10] = molecular target: myc-tagged phosphatidylinositol phosphate kinase type Iβ (mouse) (UniProt P70181); assay: co-IP; COS-7 cells co-transfected with HA-IRBIT and myc-PIPK constructs; lysis buffer 10 mM Hepes pH 7.4, 100 mM NaCl, 2 mM EDTA, 1% Nonidet P-40; precipitated with anti-HA or anti-myc antibody and protein G-Sepharose at 4°C; Western blot
[11] = molecular target: myc-PIPKIα-(1–507) (mouse) (UniProt P70182); assay: as above
[12] = molecular target: myc-PIPKIα-(1–438) (mouse) (UniProt P70182); assay: as above

Measured: binding

Hemagglutinin (HA)-tagged IRBIT (IP3R-binding protein released with inositol 1,4,5-trisphosphate) (from UniProt Q80SW1 1-530)
binds: all assays above
